# Data reported in PubChem BioAssay AID445 (National Center for Advancing Translational Sciences (NCATS), 2006).
# In all, about 110,000 compounds went through this assay and about 40 (0.04%) were called active. This list was built around the results that the source calls inconclusive (neither active nor inactive); the mix of calls is not that of the screen. Calls come from the whole dose curve; as a rule, active = well fitted curve in the direction sought with a large enough effect in the signal ratio (not every such curve was filed as active); inconclusive = small, poorly fitted or top-dose-only effect, or a change in a side signal; inactive = flat fitted curve, though single readings scatter; the % refers to the signal ratio. Potencies beside an inconclusive call are fits to weak or partial responses and may not hold up.
# Assay: IkB Signaling;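 for IkBa stabilization activation: 0% = basal untreated cells and 100% = reference inhibitor full response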
# Settings: ABC-DLBCL IkBa-CBG/CBR dual luciferase ratio (green luciferase fused to IkBa over red control in OCI-Ly3 lymphoma cells), 4 h; IkBa stabilization activation: at 57.1 µM (top of the series), scaled: untreated 0%, proteasome inhibitor 100% unless noted
# Procedure, shortened: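 Curves were fitted separately to fusion (green), unfused (red) and ratio luminescence, then classed by r2, magnitude and activity. Cells: OCI-Ly3, 4 h compound plus doxycycline at 37C; 10 uM MG-132 defined full response.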
# Potency is the fitted concentration of half-maximal effect.
Compound,IkBa stabilization activation,Potency
CC(=O)N1CCc2cc(Br)cc(S(=O)(=O)CCC(=O)N3CCN(c4ccccc4Cl)CC3)c21,inconclusive: -0.767% [signal inhibitor],–
COc1ccc(-c2nc3scc(CCNS(=O)(=O)c4ccc5c(c4)OCCO5)n3n2)cc1,inconclusive: 1.18% [signal inhibitor],–
COc1ccc(C(=O)OCCNC(=O)c2c(Cl)nc3ccccn23)cc1,inconclusive: 5.43% [signal inhibitor],–
Cc1cccc(C)c1NC(=O)CS(=O)(=O)c1nc(-c2ccc(Cl)cc2)cn1-c1ccccc1,inconclusive: 16.8% [signal inhibitor],–
CC(=O)N1CCc2cc(S(=O)(=O)NC(CC(C)C)C(=O)Nc3cc(C)cc(C)c3)ccc21 (stereo not drawn),inconclusive: 3.04% [signal inhibitor],–
C/C(=C\C(=O)c1ccc(F)cc1)Nc1ccc(N2CCOCC2)cc1,inactive,–
Cc1cccn2c(=O)c3cc(C#N)c(=O)n(-c4nnc(SCc5ccc(Cl)cc5)s4)c3nc12,inconclusive: 1.42% [signal inhibitor],–
Cc1ccc(C)c(Cn2c(=O)c3c(nc4n3CCN4c3ccccc3)n(C)c2=O)c1,inconclusive: 8.04% [signal inhibitor],–
CC(=O)N1CCc2c(sc3c2c(=O)n(CCc2ccccc2)c(=O)n3Cc2ccccc2C)C1,inconclusive: 2.93% [signal inhibitor],–
COc1ccc(NC(=O)CSc2nc(-c3cccc(C)c3)[nH]c2-c2ccccc2)cc1OC,inconclusive: 3.04% [signal inhibitor],–
COc1ccc(N2C(=O)CSC23C(=O)N(CC(=O)NCCc2ccccc2)c2ccccc23)cc1 (stereo not drawn),inconclusive: -2.03% [signal inhibitor],–
COc1cc(N=c2ssnc2Cl)cc(OC)c1OC,inconclusive: 14% [signal inhibitor],–
COc1cc2[nH]c(=O)n(CCC(=O)N3CCN(c4cccc(C)c4C)CC3)c(=O)c2cc1OC,inactive,–
O=C(CSc1ncnc2c1oc1ccccc12)Nc1cccc(F)c1,inactive,–
Cc1ccc(S(=O)(=O)c2c(O)cc(C)c(NS(=O)(=O)c3ccc(Cl)cc3)c2C)cc1,inconclusive: 9.42% [signal inhibitor],–
Cc1cc(C)c2sc(N3CCN(C(=O)c4ccc(N(C)C)cc4)CC3)nc2c1,inconclusive: 5.38% [signal inhibitor],–
CC(C)Cn1c(N)c(C(=O)NCc2cccs2)c2nc3ccccc3nc21,inconclusive: -9.35% [signal inhibitor],–
COc1ccc(-c2cn3c(C)c(C(=O)Nc4cccc(NC(C)=O)c4)sc3n2)cc1,inconclusive: 9.67% [signal inhibitor],–
COc1cccc(Cc2nc3ccccc3nc2SCC(=O)Nc2cc(OC)ccc2OC)c1,inconclusive: 8.36% [signal inhibitor],–
COc1ccc(-c2noc(-c3ccccc3F)n2)cc1,–,"inconclusive: 20 µM [signal inhibitor, partial curve]"
CCCC(=O)Nc1ccc(NC(=O)c2ccccc2OC)cn1,inactive,–
CCOCCn1ccc2c(OCC(=O)Nc3cccc(F)c3)cccc2c1=O,inconclusive: 2.71% [signal inhibitor],–
CCOc1cc(-c2ccc(OC(=O)c3ccccc3)c(OC)c2)cc(=O)c2c(C)oc(C)c12,inconclusive: 0.656% [signal inhibitor],–

Compound,IkBa stabilization activation,Potency
CCCCC(=O)Nc1ccc(N2CCN(C(=O)CC)CC2)cc1,inactive,–
Cc1ccc(C2c3c(oc4ccccc4c3=O)C(=O)N2c2nnc(C)s2)cc1 (stereo not drawn),inconclusive: -0.208% [signal inhibitor],–
COc1ccc(C)cc1Nc1ncnc2c1c(-c1ccccc1)cn2-c1ccc(C)cc1,inconclusive: -1.25% [signal inhibitor],–
O=c1c2sc3ccccc3c2n(Cc2ccccc2)c(=O)n1CCc1ccccc1,inconclusive: 0.901% [signal inhibitor],–
COc1ccc(S(=O)(=O)N2CCC(C(=O)Nc3cc(C(F)(F)F)ccc3Cl)CC2)cc1,inconclusive: 4.17% [signal inhibitor],–
Cc1cc(C(=O)CSc2nnnn2-c2ccc(O)cc2)c(C)n1Cc1ccc2c(c1)OCO2,inconclusive: -1.76% [signal inhibitor],–
COc1ccc(OC)c2sc(N3CCN(C(=O)C4COc5ccccc5O4)CC3)nc12 (stereo not drawn),inconclusive: 4.38% [signal inhibitor],–
CCC(=O)Nc1cccc(NC(=O)CSc2nnc(C(C)C)n2CC)c1,inactive,–
CC(C)c1ccc(NC(=O)CCS(=O)(=O)c2ccc3c(c2)CC(=O)N3C)cc1,inconclusive: -2.47% [signal inhibitor],–
Fc1ccc(Nc2ccnc(-c3ccoc3)n2)cc1,"inactive: 1.29% [at 11.4 µM, scaled: untreated 0%, proteasome inhibitor 100%]",–
CCCCCn1cc2c(c1-c1ccccc1Br)c(=O)n(C)c(=O)n2C,inconclusive: 1.83% [signal inhibitor],–
COc1ccc(C(c2nnnn2CC2CCCO2)N2CCN(c3cccc(C)c3C)CC2)cc1 (stereo not drawn),inconclusive: 4.52% [signal inhibitor],–
Cc1ccc2occ(CC(=O)Nc3ccc(S(=O)(=O)N4CCC(C)CC4)cc3)c2c1,inconclusive: -0.42% [signal inhibitor],–
CCOc1ccc2ncc3c(-c4cccc(OC)c4)nn(-c4ccccc4)c3c2c1,inconclusive: -5.44% [signal inhibitor],–
COc1ccccc1CNC(=O)CSc1nnc(C)c2c(C)n(-c3ccccc3)nc12,inconclusive: -0.397% [signal inhibitor],–
Cn1c(NC(=O)c2ccccc2C(F)(F)F)cc(=O)n(C)c1=O,inactive,–
Cc1ccccc1OCCCCn1nnc2sc3c(c2c1=O)CCC(C)C3 (stereo not drawn),inconclusive: -1.25% [signal inhibitor],–
Cc1ccc(CCNC(=O)c2ccc3c(c2)nc2n3CCOC2)cc1,inactive,–
Cc1nc2sccn2c(=O)c1S(=O)(=O)Nc1cc(C(F)(F)F)ccc1Cl,inconclusive: 0.053% [signal inhibitor],–
COc1ccccc1NC=C1C(=O)OC(C)(C)OC1=O,inactive,–
CN1C(=O)C2(SCC(=O)N2c2ccc(Cl)cc2)c2ccccc21 (stereo not drawn),inconclusive: 2.64% [signal inhibitor],–
CC(=O)N1CCCc2cc(S(=O)(=O)N3CCCC(C(=O)NCc4ccc(C)cc4)C3)ccc21 (stereo not drawn),inconclusive: 0.325% [signal inhibitor],–
COc1cccc(Nc2ncc3nc(-c4ccc(F)cc4)c(=O)n(C[C@H]4CCCO4)c3n2)c1,"inactive: 3.43% [at 11.4 µM, scaled: untreated 0%, proteasome inhibitor 100%]",–

Compound,IkBa stabilization activation,Potency
CCCOc1ccc(-c2cc(C(F)(F)F)c(C#N)c(SCCC(=O)O)n2)cc1,–,inconclusive: 31.6 µM [signal inhibitor]
CCCN(CCC)C(=O)Cn1c(=O)n(CCCCCC(=O)NCc2ccccc2Cl)c(=O)c2sccc21,inconclusive: -0.565% [signal inhibitor],–
COc1ccc(C2CC3(CC(C)(C)NC(=O)N3)Oc3cc(O)ccc32)cc1 (stereo not drawn),inconclusive: 1.68% [signal inhibitor],–
CS(=O)(=O)N1CCc2cc(C(=O)Nc3ccc(C(F)(F)F)cc3)ccc21,inconclusive: -0.557% [signal inhibitor],–
CC(=O)OCCNc1cc(N2CCN(C)CC2)c2noc3c2c1C(=O)c1ccccc1-3,inactive,–
CC(=O)c1ccc(NC(=O)N2CCN(c3cccc(Cl)c3)CC2)cc1,inconclusive: 2.5% [signal inhibitor],–
O=C1C(=O)N(Cc2ccc(Cl)c(Cl)c2)c2ccccc21,inconclusive: 2.4% [signal inhibitor],–
CCOC(=O)c1ccc(NCc2nc3ccccc3[nH]2)cc1,inconclusive: 12% [signal inhibitor],–
Cc1ccc(-c2noc(CSc3nnc(C)n3-c3ccc(C)c(C)c3)n2)cc1,inconclusive: -1.28% [signal inhibitor],–
Cc1cc(NC(=O)c2ccccc2)sc1C,inconclusive: 17.2% [signal inhibitor],–
CCOc1ccc(NC(=O)c2cc(S(=O)(=O)N3CCN(c4ccccc4F)CC3)ccc2F)cc1,inconclusive: 0.142% [signal inhibitor],–
COc1ccc(OCC(=O)Nc2cccc(OC)c2)cc1,inconclusive: 4.08% [signal inhibitor],–
CCCCN(C)C(=O)CSc1nc2ccccc2nc1Cc1ccc(C)cc1,inconclusive: 3.31% [signal inhibitor],–
Cc1ccc2oc(C(=O)N(Cc3sccc3C)C3CCS(=O)(=O)C3)c(C)c2c1 (stereo not drawn),inconclusive: 0.548% [signal inhibitor],–
CCOc1ccc(Nc2c(S(=O)(=O)c3ccc(C)cc3)cnc3ccc(F)cc23)cc1,inconclusive: -0.57% [signal inhibitor],–
CN1CCN(C(=O)c2cc(-c3ccc(O)cc3)on2)CC1,inactive,–
Cc1c(Cl)cccc1NC(=O)CSc1nc(=O)n(Cc2ccco2)c2c1CCC2,inconclusive: 5.23% [signal inhibitor],–
CCOC(=O)N1CCN(C(=O)c2ccc3nc4ccc(Cl)cc4c(=O)n3c2)CC1,inactive,–
CC(C)OCc1cc(CN2CCN(c3cccc(C(F)(F)F)c3)CC2)c(O)c2ncccc12,inactive,–
Cc1ccc(CCNC(=O)CN(c2ccc(C)cc2)S(=O)(=O)N(C)C)cc1,inconclusive: 0.809% [signal inhibitor],–
CCOc1ccc(S(=O)(=O)Nc2cccc(-c3ccc(N4CCC(C)CC4)nn3)c2)cc1,inactive,–
CC1CCN(S(=O)(=O)c2ccc3c(c2)N(CC(=O)NCC(C)c2ccccc2)C(=O)CO3)CC1 (stereo not drawn),inconclusive: -0.948% [signal inhibitor],–
